Assay results reported in paper PMC4336329 (PLoS ONE, 2015).
Out of some 310,000 compounds screened, about 2,200 (0.71%) showed an effect of 50% or more. The effect is printed as a negative number. The list shows a part of the results.

What follows are compounds tested against human ether-à-go-go-related gene (hERG) potassium channel (human, UniProt Q12809) (assay: primary screen, population patch clamp on CHO cells stably expressing hERG).
Sequence of human ether-à-go-go-related gene (hERG) potassium channel (Q12809 whole entry, looked up): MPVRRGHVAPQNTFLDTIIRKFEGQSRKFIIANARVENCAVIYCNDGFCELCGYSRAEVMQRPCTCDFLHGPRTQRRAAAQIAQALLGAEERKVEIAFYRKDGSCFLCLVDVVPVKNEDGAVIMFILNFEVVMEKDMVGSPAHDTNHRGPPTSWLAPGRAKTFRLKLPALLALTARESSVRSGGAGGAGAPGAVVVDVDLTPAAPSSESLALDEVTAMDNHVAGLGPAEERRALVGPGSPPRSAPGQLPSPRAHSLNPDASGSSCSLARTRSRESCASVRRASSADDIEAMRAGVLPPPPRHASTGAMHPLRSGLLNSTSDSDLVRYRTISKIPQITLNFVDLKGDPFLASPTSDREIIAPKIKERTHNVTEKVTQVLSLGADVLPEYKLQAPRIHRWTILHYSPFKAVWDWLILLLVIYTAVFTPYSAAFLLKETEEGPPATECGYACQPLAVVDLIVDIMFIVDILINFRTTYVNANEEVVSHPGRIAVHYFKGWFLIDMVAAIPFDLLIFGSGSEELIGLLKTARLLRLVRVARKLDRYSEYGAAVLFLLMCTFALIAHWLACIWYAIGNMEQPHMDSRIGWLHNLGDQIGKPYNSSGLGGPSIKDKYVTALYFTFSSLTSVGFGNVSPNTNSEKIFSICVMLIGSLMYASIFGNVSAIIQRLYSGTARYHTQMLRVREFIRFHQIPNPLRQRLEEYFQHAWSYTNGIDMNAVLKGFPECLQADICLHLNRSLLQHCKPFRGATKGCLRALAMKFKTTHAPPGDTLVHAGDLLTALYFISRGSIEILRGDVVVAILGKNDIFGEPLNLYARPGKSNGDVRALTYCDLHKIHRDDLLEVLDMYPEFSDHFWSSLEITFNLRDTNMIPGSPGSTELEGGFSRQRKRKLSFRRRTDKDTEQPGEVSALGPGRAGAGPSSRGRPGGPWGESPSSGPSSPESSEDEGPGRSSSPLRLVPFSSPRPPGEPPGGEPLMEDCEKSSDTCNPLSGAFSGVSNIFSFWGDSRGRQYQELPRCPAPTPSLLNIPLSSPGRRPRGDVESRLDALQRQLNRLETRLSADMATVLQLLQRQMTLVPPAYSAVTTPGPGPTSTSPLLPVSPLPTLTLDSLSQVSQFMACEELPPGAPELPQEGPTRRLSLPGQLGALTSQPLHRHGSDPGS

| SMILES | hERG current change (%, negative = inhibition) at 1uM [%] |
| --- | --- |
| CC1(C)CC(=O)C2=C(C1)NC(SCC(=O)Nc1ccccc1)=C(C#N)C2c1ccco1 (stereo not shown) | -0.909 |
| O=C(N/N=C/c1ccco1)c1ccc(OCc2ccccc2)cc1 | 9.88 |
| O=C(COc1ccc(F)cc1)Nc1ccc2c(c1)OCCO2 | 14.6 |
| Cc1ccc(C(=O)Nc2cc(Cl)ccc2N2CCCCC2)s1 | 14.3 |
| CC1=C(C(=O)OCc2ccccc2)C(c2ccc(Cl)cc2Cl)NC(=O)N1CCCCCC(=O)O (stereo not shown) | 6.91 |
| COc1ccc(Cc2c(N)nc(N)nc2N)cc1 | 2.68 |
| CC(C)NC(=O)CSc1nnc(-c2ccncc2)n1-c1ccccc1 | 15.9 |
| COc1cccc(N/C(SCc2cccc([N+](=O)[O-])c2)=C(/C#N)C(N)=O)c1 | 7.19 |
| CC(C)(C)NC(NC(=O)Cc1ccccc1)C(Cl)(Cl)Cl (stereo not shown) | 5.27 |
| COc1cc(OC)c(OC)cc1C=NCC1(c2ccccc2)CCCC1.Cl | 11.6 |
| [N-]=[N+]=NCCN1CCN(Cc2ccccc2)CCC1=O | -0.414 |
| O=C(CCc1ccc(S(=O)(=O)N2CCOCC2)cc1)Nc1ccc2c(c1)OCCO2 | 13.7 |
| CC(C)Nc1nc(NC(C)C)nc(N(C#N)CCOc2ccc(Cl)cc2Cl)n1 | 15.5 |
| CC1CCN(C(=O)CNC(=O)Cn2ccc3ccccc3c2=O)CC1 | 11.5 |
| OC(Cn1cncn1)c1ccc(Cl)cc1Cl (stereo not shown) | 17.2 |
| O=C(O)c1ccc(N2CC3CC(C2)c2cccc(=O)n2C3)c(NC(=S)Nc2ccc(Br)cc2)c1 (stereo not shown) | 24.2 |
| O=C(O)c1cnn2c(C(F)F)cc(C(F)F)nc12 | 3.37 |
| O=Cc1ccc(-c2ccc(C(=O)O)cc2)o1 | -2.38 |
| CCCCOc1ccc(C(=O)NCC(=O)NC2CCN(Cc3ccccc3)CC2)cc1 | 12.2 |
| Cc1c(NC2=CC(=O)CC(C)(C)C2)ccc([N+](=O)[O-])c1C | -5.15 |
| O=C(COC(=O)Cc1ccccc1F)NNC(=O)c1ccc([N+](=O)[O-])cc1 | 15.3 |
| Cc1ccc(NC(=O)CN2C(=O)S/C(=C\c3cc(Cl)c(OCC(=O)O)c(Cl)c3)C2=O)cc1 | 14.5 |

| SMILES | hERG current change (%, negative = inhibition) at 1uM [%] |
| --- | --- |
| COC(=O)c1ccc(OC)c(CSc2nnc(COc3ccc(OC)cc3)o2)c1 | -6.33 |
| O=C(Cn1cnc2ccccc2c1=O)N1CCN(c2ccc(F)cc2)CC1 | 13.1 |
| CCC(C(=O)Nc1nc(C)cs1)c1ccccc1 (stereo not shown) | 13.5 |
| COc1ccc(CNC(=O)C2CCC(CNC(=O)[C@@H]3Cc4ccccc4CN3)CC2)cc1 (stereo partly shown) | 7.35 |
| Nn1c(=S)[nH]nc(Cc2ccc(O)cc2)c1=O | -16.3 |
| Cc1ccccc1C(=O)N1CCN(c2ccc([N+](=O)[O-])c(N3CCOCC3)c2)CC1 | 2.94 |
| Cc1ccc(CNC(=O)Cn2cccc2C(=O)c2ccccc2)cc1 | 14.5 |
| Cc1ccc(-c2nc3c(c(SCC(=O)N4CCOCC4)n2)COC(C)(C)C3)cc1 | 7.54 |
| Cc1ccc(NC(=O)CSc2nnc(C3CC3)n2CC2CCCO2)c(C)c1 (stereo not shown) | 0.463 |
| CC1=CCC2C(=O)N(c3ccc(C(=O)Nc4ccccc4Cl)cc3)C(=O)C2C1 (stereo not shown) | 7.86 |
| CS(=O)(=O)Nn1cnc2ccccc2c1=O | 11.5 |
| CCOC(=O)c1c(NC(=O)CN2CCCCC2)sc2c1CCCC2O (stereo not shown) | 9.65 |
| Cc1ccc(N=C2NC(=O)/C(=C/c3cccn3C)S2)c(C)c1 | 11.4 |
| O=C(O)[C@@H]1Cc2c([nH]c3ccccc23)C2CCC(=O)N21 (stereo partly shown) | 17.1 |
| CCn1cc(Br)c(C(=O)Nc2cccc(Cl)c2)n1 | 6.29 |
| Cl.N[C@@H](CO)c1nnc([C@H](Cc2ccc(O)cc2)NC(=O)C2CCNCC2)o1 | 6.02 |
| O=C(NC1CCCc2ccccc21)C1CCN(S(=O)(=O)c2cccc3nonc23)CC1 (stereo not shown) | 15.7 |
| O=C(C=C1CCN(c2ncc(C(F)(F)F)cc2Cl)CC1)NNC(=O)Nc1ccc(Cl)cc1 | 14.4 |
| Cc1cccc(NC(=O)c2ccccc2SCc2ccc(F)cc2)n1 | 10.9 |
| CC1CCN(S(=O)(=O)Cc2ccccc2Cl)CC1 | 3.71 |
| O=C(c1ccccc1)C1CCN(C(=O)c2ccc(Cl)cc2)CC1 | 3 |
